# Results from publication PMC4336329 (PLoS ONE, 2015).
# The campaign covered roughly 310,000 compounds. About 2,200 (0.71%) showed an effect of 50% or more. Effects have a minus sign here. Some of the results follow.
# Molecular target: human ether-à-go-go-related gene (hERG) potassium channel (human, UniProt Q12809)
# Assay: primary screen, population patch clamp on CHO cells stably expressing hERG
# Sequence of human ether-à-go-go-related gene (hERG) potassium channel (Q12809 whole entry, looked up): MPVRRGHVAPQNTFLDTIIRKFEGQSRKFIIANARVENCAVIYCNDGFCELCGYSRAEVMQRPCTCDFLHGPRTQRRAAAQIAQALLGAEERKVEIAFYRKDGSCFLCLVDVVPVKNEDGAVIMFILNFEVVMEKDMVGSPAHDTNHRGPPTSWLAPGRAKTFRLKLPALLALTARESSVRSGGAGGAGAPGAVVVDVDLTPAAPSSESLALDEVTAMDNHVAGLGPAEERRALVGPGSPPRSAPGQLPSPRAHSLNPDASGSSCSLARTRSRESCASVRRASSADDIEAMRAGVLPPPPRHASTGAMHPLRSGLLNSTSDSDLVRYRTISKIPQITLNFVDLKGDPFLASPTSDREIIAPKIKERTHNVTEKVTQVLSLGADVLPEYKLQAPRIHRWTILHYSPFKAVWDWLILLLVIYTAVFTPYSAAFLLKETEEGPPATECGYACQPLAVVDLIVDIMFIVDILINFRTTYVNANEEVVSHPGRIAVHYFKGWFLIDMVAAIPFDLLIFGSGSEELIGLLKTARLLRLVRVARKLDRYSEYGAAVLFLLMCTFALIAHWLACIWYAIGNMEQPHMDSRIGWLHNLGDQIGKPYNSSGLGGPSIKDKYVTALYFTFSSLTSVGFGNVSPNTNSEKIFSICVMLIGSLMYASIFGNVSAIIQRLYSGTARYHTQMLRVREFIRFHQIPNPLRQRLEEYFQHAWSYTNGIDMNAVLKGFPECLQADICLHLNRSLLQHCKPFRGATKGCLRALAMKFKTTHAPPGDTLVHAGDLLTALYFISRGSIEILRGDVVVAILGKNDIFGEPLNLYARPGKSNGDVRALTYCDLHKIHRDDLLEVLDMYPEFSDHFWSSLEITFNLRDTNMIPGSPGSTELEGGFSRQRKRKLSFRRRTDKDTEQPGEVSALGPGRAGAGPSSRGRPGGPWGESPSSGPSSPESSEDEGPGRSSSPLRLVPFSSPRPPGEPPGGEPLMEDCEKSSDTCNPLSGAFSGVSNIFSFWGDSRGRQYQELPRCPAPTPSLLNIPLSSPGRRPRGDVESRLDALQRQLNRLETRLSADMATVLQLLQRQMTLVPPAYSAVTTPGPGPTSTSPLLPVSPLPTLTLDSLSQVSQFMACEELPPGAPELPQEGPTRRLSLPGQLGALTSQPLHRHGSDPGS
row,Structure (SMILES),"hERG current change (%, negative = inhibition) at 1uM [%]"
1,Cc1ccc2nc(N(CCCN(C)C)C(=O)CCc3ccccc3)sc2c1.Cl,-2.33
2,Cc1nccn1-c1ncnc2sc3c(c12)CCCC3,4.86
3,COC(=O)Cc1csc(Nc2ccccc2)n1,8.24
4,COc1ccc(OC)c(C2C(C#N)=C(N)Oc3c2c(C)nn3-c2cccc(Cl)c2)c1 (stereo not drawn),7.28
5,COc1ccc(-c2[nH]ncc2-c2cscn2)c(O)c1,-0.759
6,COc1ccc(NC(=S)Nc2cnc3ccccc3c2)c(OC)c1,2.49
7,CCCc1[nH]n(-c2ccc(F)cc2)c(=O)c1C=Nc1ccc(C)cc1,5.18
8,CC(OC(=O)C1CCN(c2ccc(C(F)(F)F)cn2)CC1)C(=O)Nc1ccc(S(N)(=O)=O)cc1 (stereo not drawn),6.71
9,Cc1cc(C(=O)Nc2ccc(N3CCOCC3)c(Cl)c2)c(C)o1,8.45
10,C=C(C)C(=O)Nc1cccc(C2=NOC3(C2)C[C@@H](C(N)=O)N(C(=O)/C=C/C=C/C)C3)c1 (stereo partly drawn),9.54
11,Cn1cnc([N+](=O)[O-])c1NCc1ccccc1,7.78
12,O=C(Cn1cc(SCc2ccc(F)cc2)c2ccccc21)N1CCOCC1,-2.9
13,Cn1nnnc1SCC(=O)Nc1nc2ccccc2s1,-1.17
14,N#C/C(=C\c1cccnc1)c1ccccn1,8.43
15,CCOc1cc(N2CCOCC2)c(OCC)cc1NC(=O)COC(=O)COc1ccc(C#N)cc1,3.78
16,CC(C)(C)c1ccc2c(c1)C(=O)c1ccccc1C2=O,12.8
17,CSc1ncc(/C=C2/C(=O)NC(=O)N(C)C2=O)cn1,15.7
18,COc1ccc(/C=C/C(=O)NC(=S)N2CCOCC2)cc1,10.7
19,CCCc1[nH]nc2c1C(c1ccncc1)C(C#N)=C(N)O2 (stereo not drawn),12.1
20,Fc1cccc(Nc2nc3ccccc3n3nnnc23)c1,7.24
21,Cc1cc(NCCN2CCOCC2)n2nc(C)c(-c3ccc(Cl)cc3)c2n1,0.983
22,CN(C)C(=O)Oc1ccc(Cl)c2cccnc12,3.04
23,COc1cc(S(=O)(=O)N(Cc2ccco2)C2CCCC2)ccc1-n1cnnn1,3.92

row,Structure (SMILES),"hERG current change (%, negative = inhibition) at 1uM [%]"
1,Cc1cc(C)cc(NC(=O)CCNS(=O)(=O)c2cc(Br)cnc2N)c1,12.7
2,O=C(CCNC(=O)N1CCn2c1nc1ccccc12)NCc1ccccc1Cl,5.35
3,COc1cc(Cl)c(C)cc1NC(=O)COC(=O)c1cnc(C)cn1,12
4,CCn1c(Cc2cccn2C)nnc1SCC(=O)c1ccc(C)cc1,-2.37
5,O=C(CCN1CCOCC1)Nc1ccc(F)cc1,0.918
6,COC(=O)c1c(-c2ccc(OC)cc2)oc2ccccc12,7.43
7,CCOC(=O)C1=C(COc2ccccc2)NC(=O)NC1c1ccc(Br)cc1 (stereo not drawn),9.77
8,COc1cc(C(=O)N/C(=C\c2cn(C)c3ccccc23)C(=O)NCCCN2CCOCC2)cc(OC)c1OC,3.23
9,COc1ccc(-c2csc(N3CCSCC3)n2)cc1,12.8
10,CCOC(=O)c1sc(NC(=O)C2C3C=CC(C3)C2C(=O)O)nc1C (stereo not drawn),18.7
11,CC(Sc1nnc(Cc2cccs2)n1C1CCCCC1)C(=O)N1CCc2ccccc21 (stereo not drawn),8.67
12,O=C(COc1ccccc1-c1ccccc1)N/N=C/c1ccccn1,12.6
13,c1ccc(-c2csc(Nc3cccnc3)n2)cc1,5.86
14,N#CC1=C(N)N(c2ncn[nH]2)C2=C(C(=O)CCC2)C1c1ccccc1 (stereo not drawn),15.1
15,COc1cc(NC(=O)COC(=O)/C=C/c2ccc(O)c(OC)c2)cc(OC)c1,13.9
16,O=C(COc1ccc(-n2ccnc2)cc1)Nc1cccc(F)c1,-13
17,Cc1cc(F)ccc1S(=O)(=O)N1CCCOC1CNC(=O)C(=O)NCc1ccc2c(c1)OCO2 (stereo not drawn),-0.396
18,O=C(CCSc1nc2cc(Cl)ccc2o1)N1CCOCC1,1.58
19,COc1ccc(-c2ccc(=O)n(Cc3ccccc3)n2)cc1,14.5
20,CCOc1ccc(=O)n(-c2ccccc2)n1,2.02
21,Cc1cc(NC(=O)CSC2=NS(=O)(=O)c3cc(Cl)ccc3N2)no1,16.3
22,O=C(Nc1ccon1)c1cccc(Cl)c1,9.8
